Experimental data from article PMC4336329 (PLoS ONE, 2015).
About 2,200 (0.71%) of roughly 310,000 compounds showed an effect of 50% or more. Effects have a minus sign here. The list shows a part of the results.

The compounds below were run against human ether-à-go-go-related gene (hERG) potassium channel (human, UniProt Q12809) (assay: primary screen, population patch clamp on CHO cells stably expressing hERG).
Chain of human ether-à-go-go-related gene (hERG) potassium channel (Q12809 whole entry, looked up): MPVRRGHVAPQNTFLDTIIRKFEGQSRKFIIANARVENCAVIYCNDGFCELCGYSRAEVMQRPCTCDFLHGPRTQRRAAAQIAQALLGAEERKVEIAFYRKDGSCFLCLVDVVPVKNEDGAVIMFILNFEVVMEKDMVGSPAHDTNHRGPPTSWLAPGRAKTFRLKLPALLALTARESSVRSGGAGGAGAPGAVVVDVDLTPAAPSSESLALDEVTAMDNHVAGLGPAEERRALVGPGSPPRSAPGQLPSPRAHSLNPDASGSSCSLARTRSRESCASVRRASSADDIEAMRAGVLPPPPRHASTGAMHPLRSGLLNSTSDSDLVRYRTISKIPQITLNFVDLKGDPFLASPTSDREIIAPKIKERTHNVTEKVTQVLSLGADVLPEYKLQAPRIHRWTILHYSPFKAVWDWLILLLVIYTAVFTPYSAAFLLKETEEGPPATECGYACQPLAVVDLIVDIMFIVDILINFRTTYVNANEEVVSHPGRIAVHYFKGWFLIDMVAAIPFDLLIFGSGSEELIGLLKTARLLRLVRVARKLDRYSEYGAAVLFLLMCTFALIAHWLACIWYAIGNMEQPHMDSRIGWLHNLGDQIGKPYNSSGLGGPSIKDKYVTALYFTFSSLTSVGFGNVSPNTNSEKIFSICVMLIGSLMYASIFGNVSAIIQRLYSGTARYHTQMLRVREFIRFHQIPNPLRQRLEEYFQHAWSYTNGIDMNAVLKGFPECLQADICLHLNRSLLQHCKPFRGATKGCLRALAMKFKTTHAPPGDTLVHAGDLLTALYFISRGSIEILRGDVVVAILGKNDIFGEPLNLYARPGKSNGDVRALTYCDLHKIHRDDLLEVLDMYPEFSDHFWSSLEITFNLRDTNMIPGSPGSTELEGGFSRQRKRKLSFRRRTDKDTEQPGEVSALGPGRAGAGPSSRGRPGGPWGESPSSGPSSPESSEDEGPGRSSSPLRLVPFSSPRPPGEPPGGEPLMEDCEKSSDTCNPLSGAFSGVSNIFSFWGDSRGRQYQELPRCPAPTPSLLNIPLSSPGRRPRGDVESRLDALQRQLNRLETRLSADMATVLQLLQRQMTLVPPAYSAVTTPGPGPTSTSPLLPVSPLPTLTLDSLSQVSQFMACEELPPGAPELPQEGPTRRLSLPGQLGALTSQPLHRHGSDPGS

Row | SMILES | hERG current change (%, negative = inhibition) at 1uM
1 | CCCN1C(=O)/C(=C/c2ccccc2OCc2ccc(C(=O)O)cc2)NC1=S | 8.39%
2 | CCOc1ccc(N2C(=O)CC(Sc3n[nH]c(-c4ccccc4)n3)C2=O)cc1 (stereo not drawn) | 14.2%
3 | O=C(Cc1csc(Nc2nc(=S)[nH]c3ccccc23)n1)N1CCN(c2cccc(Cl)c2)CC1 | 11.8%
4 | CCn1c(SCC(=O)NC2CCCC2)nnc1C(C)NC(=O)c1ccccc1F (stereo not drawn) | 19.8%
5 | Cc1ccc(S(=O)(=O)N2CCCC2C(=O)N(C)Cc2cccs2)cc1 (stereo not drawn) | -2.75%
6 | Cc1ccc(C)c2c3c([nH]c12)-c1nonc1CC3 | 9.91%
7 | O=C(O)C(=O)O.O=C(c1ccccc1)c1ccc(OCC(O)CNCc2cccc(Cl)c2)cc1 (stereo not drawn) | 9.18%
8 | COC(=O)c1ncn(C2OC(COC(C)=O)C(OC(C)=O)C2OC(C)=O)n1 (stereo not drawn) | 0.268%
9 | CCN1C(=O)[C@H]2[C@@H](c3ccc(-c4ccc(Cl)c(Cl)c4)c(OC)c3)N[C@@](Cc3ccccc3)(C(=O)OC)[C@H]2C1=O.O=C(O)C(F)(F)F | 16.8%
10 | COC1=C(Nc2ccc(C)cc2)C(=O)c2ccccc2C1=O | 7.51%
11 | Cc1ccc(/C=N/Nc2ncc(Cl)cc2Cl)s1 | 10.4%
12 | O=C1c2nc3cc(-c4ccco4)[nH]n3c(=O)c2CN1C1CCCCC1 | 10.3%
13 | Cc1cccc(NC(=O)Cc2coc3ccc4ccccc4c23)n1 | 3.43%
14 | CN(CCc1ccccn1)Cc1ccc(Cl)cc1 | -24.6%
15 | CCOc1ccc(/C=N/NC(=O)Cc2ccccc2)cc1CN1CC2CC(C1)c1cccc(=O)n1C2 (stereo not drawn) | 11%
16 | C=CCn1c(SCc2csc(-c3ccc(Cl)cc3)n2)nnc1-c1ccccc1OC | 6.88%
17 | Cn1cccc1/C=N/NC(=O)CNc1cccc2ccccc12 | 7.77%
18 | Cc1nn(-c2ccc(Cl)cc2)c2[nH]c(=O)c(CNCc3ccc4c(c3)OCO4)cc12 | -20.9%
19 | CCCCN(C)C(=O)C(Cc1ccccc1)NS(=O)(=O)c1ccc2c(c1)CCC(=O)N2 (stereo not drawn) | -7.18%
20 | O=S(=O)(Nc1ccon1)c1cc(Cl)ccc1Cl | 13.1%
21 | CC(C)c1nnc(NC(=O)c2c(O)c3cccc4c3n(c2=O)CCC4)s1 | 13.9%
22 | Cc1cccc(NS(=O)(=O)c2cn(C)c(=O)n(C)c2=O)c1C | 10.3%

Row | SMILES | hERG current change (%, negative = inhibition) at 1uM
23 | N/C(=N\O)c1ccncc1 | 13.8%
24 | CCC(C(=O)OCC(=O)N(CC)c1c(N)n(Cc2ccccc2)c(=O)[nH]c1=O)c1ccccc1 (stereo not drawn) | 0.82%
25 | O=C(Nc1ccc(Cl)cc1)c1cccc(N2C(=O)C3C4CCC(C4)C3C2=O)c1 (stereo not drawn) | 11.7%
26 | CCOC(=O)N1CCN(c2c(NCc3ccccc3Cl)c(=O)c2=O)CC1 | 11.9%
27 | O=C(NC(=S)Nc1nc2ccc(F)cc2s1)c1ccco1 | 7.83%
28 | CCOc1cc(CN2CCN(c3cccc(C(F)(F)F)c3)CC2)ccc1OC | -10.1%
29 | COc1cc(CC(=O)NCCc2ccc(S(N)(=O)=O)cc2)cc(OC)c1OC | 12.6%
30 | Cn1c(=O)c2ccccc2n2c(=S)[nH]nc12 | 19.2%
31 | O=C(CSc1nnnn1-c1cccnc1)Nc1ccccc1F | 22%
32 | CCn1c2ccccc2c2cc(N=C3SC(CC(=O)Nc4ccccc4OC)C(=O)N3CCOC)ccc21 (stereo not drawn) | 3.61%
33 | CCN(C(=O)COc1nc(C)cc(C)c1C#N)c1ccccc1 | 7.37%
34 | COc1ccc(-c2cc(C(=O)OCC(=O)NC(C)C)c3ccccc3n2)cc1 | 0.906%
35 | Cc1ccc(/C=C/c2nnc(-c3ccc(C)cc3)o2)cc1 | 7.46%
36 | O=C1Nc2cc(C(=O)NCCCN3CCCC3)ccc2S/C1=C\c1ccccc1 | -19.7%
37 | CCN(CC)CCCNC(=S)N1CCn2c(nc3ccccc32)C1 | 9.71%
38 | Cc1ccc2oc(=O)c3cnn(CC(=O)N(CCCN4CCOCC4)Cc4ccco4)c3c2c1 | -13.2%
39 | O=C(O)C(=O)O.O=[N+]([O-])c1ccccc1CNCCc1ccc(F)cc1 | -17.1%
40 | O=C(c1cc(-c2ccco2)nc2ccccc12)N1CCN(c2ccc(F)cc2)CC1 | 6.36%
41 | COc1cccc(Nc2nnc(SCC(=O)N3CC(C)OC(C)C3)s2)c1 (stereo not drawn) | 8.49%
42 | C=CCn1c(/N=C/c2ccc(OC)cc2)nc2ccccc21 | 11.2%
43 | O=c1ccnc(SCCC(F)=C(F)F)[nH]1 | 16.9%
44 | CN(C(N)=S)c1ccccc1 | 13.6%

Row | SMILES | hERG current change (%, negative = inhibition) at 1uM
45 | CCOC(=O)N1CCC(NC(=O)CSCc2nc(-c3ccc(C)cc3)oc2C)CC1 | 6.59%
46 | CSc1cc(C)nc(N(C)C(C)=O)n1 | 23.1%
47 | COc1nc(Cl)cn(-c2ccc(Cl)cc2)c1=O | 14.4%
48 | COc1cc(OC)cc(C(=O)NC(=S)Nc2ccc(N3CCCC3)cc2)c1 | 1.75%
49 | Cc1cc(C)nc(-n2nc(C)c3c(C(F)(F)F)cc(=O)[nH]c32)n1 | 6.54%
50 | COc1ccc(-c2cc(=O)oc3c(C)c(OC(C)C(C)=O)ccc23)cc1 (stereo not drawn) | 16.4%
51 | CSc1ncccc1C(=O)OCC(=O)NCc1ccc2c(c1)OCO2 | 8.92%
52 | CSCC[C@H](N)C(=O)N1CCC(C(=O)N[C@H](C)C(=O)NC(C)c2ccccc2)CC1 (stereo partly drawn) | 8.95%
53 | CCOC(=O)c1ccc(NC(=O)c2c(N)n(C)c(=O)[nH]c2=O)cc1 | 12.8%
54 | COc1cc(C)c(NC(=O)C(=S)NCCc2ccccc2)cc1C | 7.04%
55 | COc1ccc2c(=O)c3c(=O)n(-c4ccccc4)c(-c4ccco4)nc3oc2c1 | 13.3%
56 | COc1ccc(CC(=O)OCC(=O)Nc2ccc(Cl)cn2)cc1 | 2.4%
57 | COC(=O)c1ccccc1NC1c2ccccc2C(=O)N1c1cccnc1 (stereo not drawn) | 8.65%
58 | CCOc1cccc(SCc2noc(C(=O)NCC3CCCO3)c2C(=O)O)c1 (stereo not drawn) | 23.7%
59 | CC1(C)CC(N2CCN(C(c3ccccc3)c3ccccc3)CC2)=CC(=[N+]2CCCCC2)C1.[I-] | -26.4%
60 | CN(CCNC(=O)c1cn(C)c2ccc(S(=O)(=O)N(C)C)cc2c1=O)CCc1ccccc1 | -8.87%
61 | Cc1cccn2c(=O)c3cc(C#N)c(=O)n(CCCN4CCOCC4)c3nc12 | -21.2%
62 | O=C(COC(=O)C1=COCCO1)Nc1cc(S(=O)(=O)N2CCCCC2)ccc1Cl | 8.24%
63 | O=S(=O)(c1cc(Cl)ccc1Cl)n1cccn1 | 11.6%
64 | O=C(COc1ccc(S(=O)(=O)N2CCOCC2)cc1)Nc1ccc2c(c1)OCCO2 | -10%
65 | COc1cccc(/C=C/C(=C2/C(=O)N(c3ccccc3)N=C2C)c2ccc(Br)cc2)c1OC | 8.79%
66 | NNC(=O)CNC(c1ccccc1)c1cc(Br)ccc1NC(=O)c1ccc(Br)cc1 (stereo not drawn) | 3.33%

Row | SMILES | hERG current change (%, negative = inhibition) at 1uM
67 | Cc1ccc(S(=O)(=O)N2CCN(C)CC2)cc1-c1nnc2c3ccccc3c(C)nn12 | -1.83%
68 | O=c1[nH]c(NC2CCCCC2)nnc1Cc1ccccc1 | 15%
69 | COc1ccc(-c2cc(C)no2)cc1S(=O)(=O)NCC1CCN(Cc2cc(C)ccc2C)CC1 | -14.7%
70 | COCCNC(=O)CSc1ccc(-c2nc3ccccc3[nH]2)cn1 | 5.48%
71 | CCCCC(=O)Nc1cnc(NC(=O)c2cccs2)cc1C | 7.98%
72 | CCc1cc2c(-c3ccccc3)cc(=O)oc2cc1OC(C)C(=O)O (stereo not drawn) | 17.3%
73 | O=S(=O)(Cc1noc(-c2ccc(OC(F)(F)F)cc2)n1)c1ccc(F)cc1 | 5.35%
74 | Cc1cc(Oc2cc(NN3CCCCC3)c([N+](=O)[O-])cc2[N+](=O)[O-])ccc1[N+](=O)[O-] | -0.65%
75 | CCOC(=O)CC1C(=O)NCCN1Cc1cccs1 (stereo not drawn) | 9.17%
76 | COc1ccc2nc(N/C(N)=N/S(C)(=O)=O)nc(C)c2c1 | 9.32%
77 | CC(=O)c1ccc(NC(=O)CC23CC4CC(C2)CC(n2nnc(C)n2)(C4)C3)cc1 | 0.832%
78 | C1=C(c2ccccc2)CCNC1.Cl | 2.71%
79 | COc1ccc(CCC(=O)Nc2nnc(C)s2)cc1 | 5.82%
80 | COc1ccc(S(=O)(=O)N=C2C=C(C)C(=O)C(C)=C2)cc1 | 1.51%
81 | Cc1cc(-c2ccc(C)c(S(=O)(=O)NCCCN3CCN(c4ccccc4)CC3)c2)on1 | 13.4%
82 | CC(=O)c1c(C)[nH]c(C(=O)CN2CCN(S(=O)(=O)c3ccc(C(C)C)cc3)CC2)c1C | 8.2%
83 | Cc1ccccc1N1CCN(C2CCCN(C(=O)CCN3CCCO3)C2)CC1 (stereo not drawn) | 7.02%
84 | C#CCSc1nncn1C(=O)/C=C/c1ccccc1 | 9.8%
85 | NC(=O)C1CCN(C(=O)COc2ccc3c4c(c(=O)oc3c2)CCC4)CC1 | 11.2%
86 | CCC(Oc1ccccc1)C(=O)N1CCN(S(=O)(=O)c2ccccc2)CC1 (stereo not drawn) | 2.04%
87 | O=C(/C=C/c1ccccc1)N/C(=C/c1ccccc1)C(=O)NCCCO | 2.59%
